{"source": "PubChem BioAssay AID463173", "about": "(ICCB-Longwood Screening Facility, Harvard Medical School, 2010)", "note": "Among all 52,000 compounds or so, about 1,700 (3.3%) were called active. No stated cut-off is given here; in the data, active means survival mostly below about 52% (no sharp cut-off); inactive means mostly above about 56%. The list shows a part of the results.", "data": [{"test_system": "Wild type", "assay": "S. aureus survival, RN4220 and DeltatarO strains – OD600, teichoic acid synthesis inhibitors, primary screen (AID 463173)", "conditions": "S. aureus RN4220 wild type/DeltatarO growth, OD600, 18 h, hits give low values, screened at 18.75 µg/mL (by protocol)", "values": [{"compound": "CCOc1ccc(Nc2c(S(=O)(=O)c3ccc(C)cc3)cnc3ccccc23)cc1", "survival": "inactive: 41%"}, {"compound": "CCc1ccc(NC(=O)CSc2nnc(-c3nonc3NC(C)=O)n2-c2ccccc2)cc1", "survival": "inactive: 56%"}, {"compound": "CCn1cc2nc(SCc3cccc(C(F)(F)F)c3)n(CCc3ccccc3)c(=O)c2n1", "survival": "inactive: 127%"}, {"compound": "CC1=C(C(N)=O)C(c2ccc(C(C)C)cc2)n2nc(SCc3ccccc3F)nc2N1", "note": "(configuration not stated)", "survival": "inactive: 111%"}, {"compound": "COc1ccc(-c2cc(C)no2)cc1S(=O)(=O)Nc1cccc(C(F)(F)F)c1", "survival": "inactive: 72%"}, {"compound": "Cc1c(CCNC(=O)c2ccc(C(F)(F)F)cc2)sc2nc(-c3ccc(F)cc3)nn12", "survival": "inactive: 81%"}, {"compound": "COc1ccc(CCNC(=O)Cn2c(C)c3cnn(-c4ccccc4)c(=O)c3c2C)cc1OC", "survival": "inactive: 93%"}, {"compound": "CCOc1ccc(NC(=O)Cn2cnc3nc4c(cc3c2=O)CCCC4)cc1", "survival": "inactive: 78%"}, {"compound": "COCCn1c(-c2ccccc2)cnc1N", "survival": "inactive: 107%"}, {"compound": "COc1ccc(-c2[nH]c(-c3ccc(F)cc3)nc2SCC(=O)Nc2ccc(OC)c(OC)c2)cc1", "survival": "inactive: 81%"}, {"compound": "Fc1ccc(-n2ncc3c(Nc4ccc(Oc5ccc(Cl)cc5)cc4)ncnc32)cc1", "survival": "inactive: 85%"}, {"compound": "COC(=O)CNC(c1ccccc1)c1cc(Br)ccc1NC(=O)c1cc(OC)c(OC)c(OC)c1", "note": "(configuration not stated)", "survival": "inactive: 77%"}, {"compound": "CC1=C(c2ccc(Cl)cc2)S(=O)(=O)N=C1N1CCN(c2cccc(C)c2)C(C)C1", "note": "(configuration not stated)", "survival": "inactive: 90%"}, {"compound": "CCCCNC(=O)c1ccc(-c2nc(CS(=O)(=O)c3ccc(C)cc3)c(C)o2)cc1", "survival": "inactive: 83%"}, {"compound": "Cc1ccc(N2CC(c3nnc(Cc4ccc(F)cc4Cl)o3)CC2=O)cc1", "note": "(configuration not stated)", "survival": "inactive: 35%"}, {"compound": "CCN1Cc2cccc(C(=O)Nc3ccc(F)cc3)c2C1=O", "survival": "inactive: 123%"}, {"compound": "COc1ccc2c(c1)c(N1CCCC1=O)c(C(=O)Nc1ccc(Cl)cc1C)n2C", "survival": "inactive: 146%"}, {"compound": "CCOC(=O)c1ccc(OCC2c3cc(OC)c(OC)cc3CCN2C(=O)Cc2ccc(OC)c(OC)c2)cc1", "note": "(configuration not stated)", "survival": "inactive: 71%"}, {"compound": "CNC(=O)c1ccc(NC(=O)c2nsc3ccccc23)cc1", "survival": "inactive: 69%"}, {"compound": "COc1ccc(-n2c(CNc3ccccc3Cl)nnc2SCC(N)=O)cc1", "survival": "inactive: 102%"}, {"compound": "Cc1ccc(-c2csc(=Nc3ccccc3)n2CCCO)cc1", "survival": "active: -7%"}, {"compound": "CCOC(=O)c1ccc(NC(=O)Cn2nnc(-c3ccc(C(F)(F)F)cc3)n2)cc1", "survival": "inactive: 92%"}, {"compound": "COc1ccc(CCNC(=O)CCCn2c(=O)c3ccccc3n(CC(=O)Nc3c(C)cc(C)cc3C)c2=O)cc1OC", "survival": "inactive: 101%"}, {"compound": "COC(=O)c1c(NC(=O)c2ccc(S(=O)(=O)N3CCCCC3)cc2)sc2c1CCN(C)C2", "survival": "inactive: 65%"}, {"compound": "N#CCC(=O)N1CCCCCC1", "survival": "inactive: 103%"}, {"compound": "Cc1ccc(-n2c(SCc3nc(-c4ccccc4C)no3)nnc2-c2ccncc2)cc1C", "survival": "inactive: 109%"}, {"compound": "Cc1cccc(-c2nc3sc(C)cc3c(=O)o2)c1", "survival": "inactive: 108%"}, {"compound": "CCOC(=O)c1c(-c2ccc(C)cc2)csc1NC(=O)c1ccc(C(C)(C)C)cc1", "survival": "inactive: 62%"}, {"compound": "CCc1ccc(NC(=O)CCS(=O)(=O)c2ccc3c(c2)oc(=O)n3C)cc1", "survival": "inactive: 72%"}, {"compound": "COC(=O)c1ccc(OC)c(Cn2c(=O)n(-c3cccc(Cl)c3)c(=O)c3c2c2cc(C)ccc2n3C)c1", "survival": "inactive: 82%"}, {"compound": "COc1ccc(NC(=O)c2c(C)oc3ccc(O)c(CN4CCCC(C)C4)c23)cc1Cl", "note": "(configuration not stated)", "survival": "inactive: 83%"}, {"compound": "Cc1ccc(-n2ncc(C(=O)N3CCc4ccccc4C3)c2C2CCN(C(=O)OC(C)(C)C)CC2)cc1C", "survival": "inactive: 71%"}, {"compound": "Cc1ccc(C)c(CN2C(=O)c3ccccc3Sc3ccc(C(=O)NC4CCCC4)cc32)c1", "survival": "inactive: 133%"}, {"compound": "Cc1ccc(N2CCN(C(=O)CCc3c(C)nc4ncnn4c3C)CC2)c(C)c1", "survival": "inactive: 72%"}, {"compound": "COc1ccccc1-c1noc(-c2ccc(NCCc3ccccc3)c([N+](=O)[O-])c2)n1", "survival": "inactive: 78%"}, {"compound": "CCS(=O)(=O)c1ncc(Cl)c(C(=O)N(Cc2ccccc2)Cc2ccco2)n1", "survival": "inactive: 46%"}, {"compound": "O=S1(=O)CCC(c2ccccc2)C1", "note": "(configuration not stated)", "survival": "inactive: 100%"}, {"compound": "COc1ccccc1C(=O)Nc1ccccc1-c1nnn(CC(=O)N2CCN(c3ccc(F)cc3)CC2)n1", "survival": "inactive: 107%"}, {"compound": "COc1ccc(-c2nc(CN3CCC(C(=O)NCCN(CC(C)C)CC(C)C)CC3)c(C)o2)cc1OC", "survival": "inactive: 123%"}, {"compound": "CC(C)(C)C(=O)OCc1cc(=O)n2nc(C3CCCCC3)sc2n1", "survival": "inactive: 59%"}, {"compound": "CCn1cc(C(=O)NCCc2ccc(OC)c(OC)c2)c(=O)c2cc(S(=O)(=O)N3CCc4ccccc4C3)ccc21", "survival": "inactive: 88%"}, {"compound": "COc1cccc(CNC(=O)CSc2ncc(S(=O)(=O)c3ccc(C)c(Cl)c3)c(=O)[nH]2)c1", "survival": "inactive: 68%"}, {"compound": "Cc1ncc(CO)c2c1Oc1nc(-c3ccccc3F)nc(SCC(=O)N3CCCCC3)c1C2", "survival": "inactive: 89%"}, {"compound": "CN(C1CCCCC1)C(c1ccc(F)cc1)c1nnnn1C1CCCCC1", "note": "(configuration not stated)", "survival": "inactive: 102%"}, {"compound": "COC(=O)c1ccccc1NC(=O)CN1C(=O)COc2ccccc21", "survival": "inactive: 69%"}, {"compound": "O=c1[nH][nH]c(=S)n2nc(-c3ccccc3)cc12", "survival": "inactive: 116%"}, {"compound": "COc1cccc2cc(-c3nc(Cl)c4c5c(sc4n3)CC(C)CC5)c(=O)oc12", "note": "(configuration not stated)", "survival": "inactive: 60%"}, {"compound": "COC(=O)c1ccc(OC)c(CSc2nnc(COc3cc(C)cc(C)c3)o2)c1", "survival": "inactive: 113%"}, {"compound": "O=C(NS(=O)(=O)c1ccc(N=NN2CCOCC2)cc1)C12CC3CC(CC(C3)C1)C2", "survival": "inactive: 106%"}, {"compound": "COc1ccc(NC(=O)CSc2nc3c(c(=O)[nH]2)CN(Cc2ccccc2)CC3)cc1Cl", "survival": "inactive: 83%"}, {"compound": "CCc1ccc(NC(=O)Cn2c(=O)n(Cc3ccccc3)c(=O)c3oc4ccccc4c32)cc1", "survival": "inactive: 85%"}, {"compound": "COC(=O)c1cccc(S(=O)(=O)N2CCC(NC(=O)Nc3cccc(F)c3)CC2)c1", "survival": "inactive: 110%"}, {"compound": "Cc1ccc(S(=O)(=O)c2cn(C)c3cc(N4CCCC4)c(F)cc3c2=O)c(C)c1", "survival": "inactive: 76%"}, {"compound": "CCOc1cc(C(=O)Nc2c(NC)c3ccccc3oc2=O)cc(OCC)c1OCC", "survival": "inactive: 131%"}, {"compound": "CCc1ccc(NC(=O)c2cnn(-c3c(C)cccc3C)c2C2CCNCC2)cc1", "survival": "inactive: 113%"}, {"compound": "CCOCCCNC(=O)c1c(NC(=O)c2cc(=O)c3cc(C)c(C)cc3o2)sc2c1CCC2", "survival": "inactive: 114%"}, {"compound": "CCOC(=O)c1ccc(N2C(=O)c3[nH]nc(-c4ccc(OC)cc4)c3C2c2ccc(C)cc2)cc1", "note": "(configuration not stated)", "survival": "inactive: 89%"}, {"compound": "COc1ccc(CN2C(=O)N(c3ccc(F)cc3)C(=O)C2CC(=O)Nc2ccccc2)cc1", "note": "(configuration not stated)", "survival": "inactive: 79%"}, {"compound": "CCn1c(=O)cc(OCC(=O)NCc2ccc(F)cc2Cl)c2ccccc21", "survival": "inactive: 99%"}, {"compound": "CC12COC3(C(=O)Nc4ccccc4)CC1CCC32C", "note": "(configuration not stated)", "survival": "inactive: 98%"}, {"compound": "CCOc1ccc(N2CC(c3nc4ccccc4n3CCC3CCCCC3)CC2=O)cc1", "note": "(configuration not stated)", "survival": "inactive: 29%"}, {"compound": "CCCNC(=O)C1CCN(c2cc(C)nc3c(-c4ccc(OC)c(OC)c4)c(C)nn23)CC1", "survival": "inactive: 80%"}, {"compound": "O=C1CN(C(=O)c2ccccc2)C(c2ccc(F)cc2)c2cc(Br)ccc2N1", "note": "(configuration not stated)", "survival": "inactive: 72%"}, {"compound": "CCc1cccc(C)c1NC(=O)Nc1csc2c1CCCC2", "survival": "inactive: 82%"}, {"compound": "COc1ccc2sc(N(Cc3cccnc3)C(=O)c3ccco3)nc2c1", "survival": "active: -4%"}, {"compound": "Cc1ccc(C)c(NC(=O)CSc2nncn3c2cc2sccc23)c1", "survival": "inactive: 80%"}, {"compound": "Cc1oc(-c2ccc(Cl)cc2)nc1CSc1nnc(C)n2c1cc1sccc12", "survival": "inactive: 96%"}, {"compound": "Cc1ccc(CCNc2nc3ccccc3c3nc(-c4ccccc4)nn23)cc1", "survival": "inactive: 73%"}, {"compound": "O=C(NCCc1c[nH]c2ccccc12)Nc1ccccc1C(F)(F)F", "survival": "inactive: 100%"}, {"compound": "CCN1CCCC1CN(Cc1cc2cc(OC)ccc2[nH]c1=O)C(=O)Nc1ccccc1", "note": "(configuration not stated)", "survival": "inactive: 99%"}, {"compound": "COc1ccc(-c2noc(-c3ccc(NC4CCCCC4)c([N+](=O)[O-])c3)n2)cc1OC", "survival": "inactive: 84%"}, {"compound": "Cc1cccc(CS(=O)(=O)CC2Nc3ccc(C(=O)NCc4ccccc4Cl)cc3NC2=O)c1", "note": "(configuration not stated)", "survival": "inactive: 73%"}, {"compound": "COC(=O)c1cc(NC(=O)Cn2ncc3c2-c2ccccc2OC3)cc(C(=O)OC)c1", "survival": "inactive: 79%"}, {"compound": "CCCn1c2ccccc2c2cnn(CC(=O)N(CCCOC(C)C)Cc3ccco3)c(=O)c21", "survival": "inactive: 76%"}, {"compound": "COc1cc(Nc2ncnc3onc(-c4ccc(Cl)cc4)c23)cc(OC)c1", "survival": "inactive: 110%"}, {"compound": "COc1cc(C(=O)Nc2ccc(OCc3cc(=O)n4ccc(C)cc4n3)cc2)cc(OC)c1OC", "survival": "active: 0%"}, {"compound": "Cc1ccc(-n2c(=O)c3c(C)c(C)sc3n(CC(=O)c3ccc(Cl)cc3)c2=O)cc1C", "survival": "inactive: 74%"}, {"compound": "Cc1ccc2c(c1)N(CC(=O)N1CCCc3ccccc31)C(=O)CO2", "survival": "inactive: 101%"}, {"compound": "CCOC1=CC2=C(CC(C)(C)CC2=O)OC1N(C)C", "note": "(configuration not stated)", "survival": "inactive: 112%"}, {"compound": "N#Cc1ccccc1CSc1nnc(-c2ccccc2)o1", "survival": "inactive: 61%"}, {"compound": "Cc1cc(NC(=O)CCC(=O)N(Cc2ccccc2)C2(C(=O)NC3CCCCC3)CCCC2)no1", "survival": "inactive: 106%"}, {"compound": "O=C(Cn1c(=O)n(Cc2ccc(F)cc2)c(=O)c2sc3ccccc3c21)NCc1ccccc1Cl", "survival": "inactive: 92%"}, {"compound": "COc1ccc(N2CCN(C(CNS(=O)(=O)c3c(C)cc(C)cc3C)c3ccco3)CC2)cc1", "note": "(configuration not stated)", "survival": "inactive: 87%"}, {"compound": "Cc1ccn2c(Nc3ccc4c(c3)OCO4)c(-c3ccco3)nc2c1", "survival": "inactive: 94%"}, {"compound": "N#Cc1c(C(F)(F)F)cc(-c2cccs2)nc1SCC(=O)Nc1ccc(Cl)cc1", "survival": "inactive: 78%"}, {"compound": "CNC(=O)CSc1ncnc2sc3c(c12)CCCC3", "survival": "inactive: 104%"}, {"compound": "Cc1cccc(N2CCN(S(=O)(=O)c3c(C)[nH]c(=O)[nH]c3=O)CC2)c1C", "survival": "inactive: 72%"}]}]}
